Reference: the supplement of paper PMC3334620
The full ranking holds about 33,000 sequences; the median of “E-score (-0.5 to 0.5)” is about -0.016, and the highest 2% start at about 0.31. This is one part of the list.

The sequences below were run against Cst6 (UniProt P40535) (assay: PBM E-score (8-mer binding enrichment) (E-score (-0.5 to 0.5)); higher = stronger / more preferred TF binding; most listed sequences are background and not binding sites). Conditions: protein concentration: 200 nM; construct: GST-DNA-binding domain.
How it was run: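 The E-score, a modified Wilcoxon-Mann-Whitney statistic, was computed by the Universal PBM Analysis Suite for every ungapped eight-base word pooled with its reverse complement. Scans behind it were normalised with masliner after bound GST-tagged yeast transcription factors were detected with fluorescent anti-GST. The proteins, at about 100-200 nM, had been applied to universal all-10-mer Agilent arrays made double-stranded by primer extension.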

Sequence	PBM E-score
CAAGTTCG	-0.156
ACTCCGTA	-0.0531
AGACCAGC	-0.339
CAAGATAA	0.158
ATATGTAA	0.225
ATAATGGG	0.0959
CGGACGAC	-0.178
GCAGTCCA	-0.103
ATTGTGGG	-0.22
AGCGCGAT	0.0797
CTTATCGC	-0.1
TGGCACCA	-0.196
GACCGCAC	-0.044
ACGGTTCC	-0.0941
AGACGTTC	-0.0634
ATGCGCCA	-0.0402
ACCTAAAG	0.0272
CCAAACCG	-0.0787
GTCAAGAC	-0.0494
GCTCCGAC	-0.282
ATTCTGCA	0.148
ATCTGGGC	-0.19
AGCTCAGA	-0.0663
CAGGTTCC	-0.289
GGTCTTAC	0.0159

Sequence	PBM E-score
ACTTGGCC	-0.0941
AATATGGA	0.00652
ATACAGCC	-0.059
CACCCCGC	-0.0908
ACGCACCT	-0.123
CTTGTGAC	0.217
ATGGACCG	-0.136
CCATACCA	-0.171
CATGGTTC	0.0175
ATTGAGGC	0.0647
CATCAATC	0.214
AGTGTGTG	-0.0737
GAGGAACC	-0.125
CGCCTTCA	-0.246
AACTGGAA	-0.0303
CCGCTTGC	-0.0102
CTAAACTC	-0.0924
TCATTACA	0.368
ATTACATA	0.396
AGATTACT	0.144
CGGGCAGA	-0.161
CACTCAAA	0.0561
GAACAACA	0.0633
AGAAGACG	0.114
CAGTGCGG	0.0412

Sequence	PBM E-score
CTTTCTAC	0.0658
GGGCAATA	-0.0422
ATATCAGC	-0.0588
CGACTTTA	-0.0726
TGAATGAA	0.251
AAAGACGG	0.0165
AACGTGTA	-0.0153
GCGGTGTA	-0.0289
CTAGAAAG	0.074
AGATACCT	-0.168
AAGCGAAA	0.062
GACGGCGA	0.191
ACATTCCG	-0.0588
AACGAAGT	-0.079
CTCAGCAA	0.0595
AACACATG	0.121
CAGGGCTA	-0.104
AGTCTATA	0.0299
AATTAAAG	0.0757
ACCGTGGC	-0.195
ATGATGAC	0.378
AATCAAAG	-0.0209
CGCTTCTA	-0.0155
TGCTAGCA	0.0927
GCACACTA	-0.138

Sequence	PBM E-score
CCGCCTTC	-0.25
GCGTTTAA	-0.00086
AAGTGCGA	-0.0338
CCCGAAGG	-0.167
CCACTGTC	-0.19
AGTTAAAG	0.073
ACCATCTG	-0.259
CCTTCCTA	-0.177
AGAACGCG	0.0341
CCAGGAAA	-0.0577
CGCGCGAA	0.145
GCAGCGAC	-0.112
GGTTGCCA	-0.128
AGCCCCCG	-0.354
ACAAGATA	0.0758
CGCCAACG	0.0132
GGACGGAA	-0.119
CATGTCGC	0.0415
AGCTAGGC	-0.263
ACGTCCCA	-0.0471
ACTGCGAA	-0.0466
AGGGTAGA	-0.138
GGTACGGA	-0.0778
ATGACTAC	0.0922
CTAAGCGA	-0.235

Sequence	PBM E-score
CCAGTAAG	-0.0688
GCTCCTAC	-0.133
GCGCAGCA	-0.197
ATTGAACG	0.169
ATCGTTGC	-0.098
CTGGTAAA	-0.0568
ACGCTTTG	0.0492
GCTATCCC	-0.246
CAGCCTAG	-0.145
AAGCAAAT	0.0467
ATCACGAG	0.0226
AGGACCAG	-0.277
AGCGTAAG	0.0543
GGCACAGA	-0.0635
AGCCGCCT	0.0766
CGCGGACG	0.00248
ACTCTGAT	0.108
ACTGGCGC	0.131
CCCTTCTA	-0.0471
AAGGCGCA	0.108
AGAGAAAC	0.0803
CCAATGCA	-0.169
GTAAACGA	0.135
AACCGGCC	-0.23
GTGACTGA	0.153

Sequence	PBM E-score
GCGAGAAA	-0.022
CTGGGGCA	-0.365
TAACGTCA	0.489
AGAACCCC	-0.282
TGTATGAA	0.107
AACTTCAT	0.0891
GGGATTCA	-0.196
CCTGTTCG	-0.0951
CTCGTATA	-0.133
CCACCTCG	-0.259
ACTGCCTA	-0.0449
AAAAGTAA	0.206
CCGAAAGG	-0.0268
CACGACGG	0.134
CGATAGCC	-0.107
AGGTGAAT	0.0319
ACATCCAG	-0.0936
GGAAGGTA	-0.0638
GAGTAACC	-7e-05
GAGGGGCA	-0.203
CTGTATGC	-0.159
GAAAGATC	-0.0988
GGGGGGAA	-0.358
CAATGAGG	-0.135
AGTGCTAT	-0.169

Sequence	PBM E-score
CAATAGGC	-0.0817
ACGTGCCA	0.127
CCCGCGGG	-0.0798
ATCGTCTG	-0.113
GGACCGTA	-0.222
GCACAGCA	-0.0492
AACAACGT	0.157
GCACAGAA	0.109
AGACGATC	-0.291
ACTGGGAC	-0.156
CCGGAGTA	-0.0764
CATACCAA	-0.0245
CTGCGTTC	0.0127
AGGCCCAG	-0.214
GATAGCCA	-0.0836
CATGCTAC	-0.263
ACTATATA	0.316
CCCGACCC	-0.246
ACCGAGTC	-0.162
ACCGACAG	-0.176
CTGATAAA	0.144
GCTTGCTA	-0.306
